# Test results reported in the supplement of paper PMC8728848.
# The list shows a part of the results.
# B1: Tap1 (Sordaria macrospora), Q50IV4 (protein)
# chain: MSHHHHHHHHYTLHLRLINDTSDTLTLVEQTSWWGKNTIWSQVRSTGVHVLSMAASGSSGMLRFQTSKGDFFAVAVGVHNYKRWCDVLVDTADEAPLTKLHPKYYDDKDAKYQALWAQASEFEAKSKSGKTVRIKFYQADGNVLRATVEYL
# Tests used:
# Assay in all cases: glycan array binding signal (z-score within array); higher = stronger binding
# Settings in all cases: glycan notation: IUPAC condensed, linker removed
# [1] = biological target: Neu5Ac(a2-3)Gal(b1-3)GalNAc(b1-4)[Neu5Ac(a2-8)Neu5Ac(a2-3)]Gal(b1-4)Glc
# Method in brief: (§1)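 Glycan array data came from 3228 arrays in the Consortium for Functional Glycomics database, and only arrays with an available protein sequence were kept. Glycan names were put into IUPAC-condensed notation, and columns mapping to the same glycan were averaged. The binding signal is a within-array Z-score, averaged across arrays of one protein sequence run at different concentrations or buffers and across linkers. A negative Z-score can be read as non-binding.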
# [2] = biological target: Neu5Ac(a2-3)Gal(b1-3)GalNAc6S
# Method in brief: as §1
# [3] = biological target: Neu5Ac(a2-3)Gal(b1-3)GlcNAc
# Method in brief: as §1
# [4] = biological target: Neu5Ac(a2-3)Gal(b1-3)GlcNAc(b1-2)Man(a1-3)[Neu5Ac(a2-3)Gal(b1-3)GlcNAc(b1-2)Man(a1-6)]Man(b1-4)GlcNAc(b1-4)GlcNAc
# Method in brief: as §1
# [5] = biological target: Neu5Ac(a2-3)Gal(b1-3)GlcNAc(b1-3)Gal(b1-3)GlcNAc
# Method in brief: as §1
# [6] = biological target: Neu5Ac(a2-3)Gal(b1-3)GlcNAc(b1-3)Gal(b1-4)GlcNAc
# Method in brief: as §1
# [7] = biological target: Neu5Ac(a2-3)Gal(b1-3)GlcNAc(b1-3)GalNAc
# Method in brief: as §1
# [8] = biological target: Neu5Ac(a2-3)Gal(b1-3)GlcNAc6S
# Method in brief: as §1
# [9] = biological target: Neu5Ac(a2-3)Gal(b1-3)[Fuc(a1-4)]GlcNAc
# Method in brief: as §1
# [10] = biological target: Neu5Ac(a2-3)Gal(b1-3)[Fuc(a1-4)]GlcNAc(b1-3)Gal(b1-3)[Fuc(a1-4)]GlcNAc
# Method in brief: as §1
# [11] = biological target: Neu5Ac(a2-3)Gal(b1-3)[Fuc(a1-4)]GlcNAc(b1-3)Gal(b1-4)[Fuc(a1-3)]GlcNAc
# Method in brief: as §1
# [12] = biological target: Neu5Ac(a2-3)Gal(b1-3)[Neu5Ac(a2-3)Gal(b1-4)]GlcNAc
# Method in brief: as §1
# [13] = biological target: Neu5Ac(a2-3)Gal(b1-3)[Neu5Ac(a2-6)]GalNAc
# Method in brief: as §1
# Neu5Ac(a2-3)Gal(b1-4)Glc = biological target: Neu5Ac(a2-3)Gal(b1-4)Glc
# Method in brief: as §1
# [14] = biological target: Neu5Ac(a2-3)Gal(b1-4)GlcNAc
# Method in brief: as §1
# [15] = biological target: Neu5Ac(a2-3)Gal(b1-4)GlcNAc(b1-2)Man(a1-3)[GlcNAc(b1-2)Man(b1-4)GlcNAc(b1-2)Man(a1-6)]Man(b1-4)GlcNAc(b1-4)GlcNAc
# Method in brief: as §1
# [16] = biological target: Neu5Ac(a2-3)Gal(b1-4)GlcNAc(b1-2)Man(a1-3)[Neu5Ac(a2-6)Gal(b1-4)GlcNAc(b1-2)Man(a1-6)]Man(b1-4)GlcNAc(b1-4)GlcNAc
# Method in brief: as §1
# [17] = biological target: Neu5Ac(a2-3)Gal(b1-4)GlcNAc(b1-3)Gal
# Method in brief: as §1
# [18] = biological target: Neu5Ac(a2-3)Gal(b1-4)GlcNAc(b1-3)Gal(b1-3)GlcNAc
# Method in brief: as §1
# [19] = biological target: Neu5Ac(a2-3)Gal(b1-4)GlcNAc(b1-3)Gal(b1-4)GlcNAc
# Method in brief: as §1
# [20] = biological target: Neu5Ac(a2-3)Gal(b1-4)GlcNAc(b1-3)Gal(b1-4)GlcNAc(b1-3)Gal(b1-4)GlcNAc
# Method in brief: as §1
# [21] = biological target: Neu5Ac(a2-3)Gal(b1-4)GlcNAc(b1-3)Gal(b1-4)[Fuc(a1-3)]GlcNAc
# Method in brief: as §1
# [22] = biological target: Neu5Ac(a2-3)Gal(b1-4)GlcNAc(b1-3)GalNAc
# Method in brief: as §1
# [23] = biological target: Neu5Ac(a2-3)Gal(b1-4)GlcNAc(b1-6)[Gal(b1-3)]GalNAc
# Method in brief: as §1
# [24] = biological target: Neu5Ac(a2-3)Gal(b1-4)GlcNAc(b1-6)[Neu5Ac(a2-3)Gal(b1-3)]GalNAc
# Method in brief: as §1
# [25] = biological target: Neu5Ac(a2-3)Gal(b1-4)GlcNAc6S
# Method in brief: as §1
# [26] = biological target: Neu5Ac(a2-3)Gal(b1-4)[Fuc(a1-3)]GlcNAc
# Method in brief: as §1
# [27] = biological target: Neu5Ac(a2-3)Gal(b1-4)[Fuc(a1-3)]GlcNAc(b1-3)Gal
# Method in brief: as §1
# [28] = biological target: Neu5Ac(a2-3)Gal(b1-4)[Fuc(a1-3)]GlcNAc(b1-3)Gal(b1-4)GlcNAc
# Method in brief: as §1
# [29] = biological target: Neu5Ac(a2-3)Gal(b1-4)[Fuc(a1-3)]GlcNAc(b1-3)Gal(b1-4)[Fuc(a1-3)]GlcNAc(b1-3)Gal(b1-4)[Fuc(a1-3)]GlcNAc
# Method in brief: as §1
# [30] = biological target: Neu5Ac(a2-3)Gal(b1-4)[Fuc(a1-3)]GlcNAc(b1-3)GalNAc
# Method in brief: as §1
# [31] = biological target: Neu5Ac(a2-3)Gal(b1-4)[Fuc(a1-3)]GlcNAc(b1-6)[Gal(b1-3)]GalNAc
# Method in brief: as §1
# [32] = biological target: Neu5Ac(a2-3)Gal(b1-4)[Fuc(a1-3)]GlcNAc(b1-6)[Neu5Ac(a2-3)Gal(b1-3)]GalNAc
# Method in brief: as §1
# [33] = biological target: Neu5Ac(a2-3)Gal(b1-4)[Fuc(a1-3)]GlcNAc6S
# Method in brief: as §1
# [34] = biological target: Neu5Ac(a2-3)Gal6S(b1-4)GlcNAc
# Method in brief: as §1
# [35] = biological target: Neu5Ac(a2-3)Gal6S(b1-4)[Fuc(a1-3)]GlcNAc
# Method in brief: as §1
# Neu5Ac(a2-3)GalNAc = biological target: Neu5Ac(a2-3)GalNAc
# Method in brief: as §1
# [36] = biological target: Neu5Ac(a2-3)GalNAc(b1-4)GlcNAc
# Method in brief: as §1
# [37] = biological target: Neu5Ac(a2-3)[GalNAc(b1-4)]Gal(b1-4)Glc
# Method in brief: as §1
# [38] = biological target: Neu5Ac(a2-3)[GalNAc(b1-4)]Gal(b1-4)GlcNAc
# Method in brief: as §1
# [39] = biological target: Neu5Ac(a2-3)[GalNAc(b1-4)]Gal(b1-4)GlcNAc(b1-3)GalNAc
# Method in brief: as §1
# [40] = biological target: Neu5Ac(a2-3)[Neu5Ac(a2-6)]GalNAc
# Method in brief: as §1
# Neu5Ac(a2-6)Gal = biological target: Neu5Ac(a2-6)Gal
# Method in brief: as §1
binder,measurement,setting,value
B1,glycan array binding signal (z-score),[1],-0.198
same,glycan array binding signal (z-score),[2],1.7
same,glycan array binding signal (z-score),[3],-0.244
same,glycan array binding signal (z-score),[4],-0.232
same,glycan array binding signal (z-score),[5],-0.244
same,glycan array binding signal (z-score),[6],-0.236
same,glycan array binding signal (z-score),[7],1.46
same,glycan array binding signal (z-score),[8],-0.247
same,glycan array binding signal (z-score),[9],-0.247
same,glycan array binding signal (z-score),[10],-0.125
same,glycan array binding signal (z-score),[11],-0.171
same,glycan array binding signal (z-score),[12],-0.249
same,glycan array binding signal (z-score),[13],2.13
same,glycan array binding signal (z-score),Neu5Ac(a2-3)Gal(b1-4)Glc,-0.239
same,glycan array binding signal (z-score),[14],-0.251
same,glycan array binding signal (z-score),[15],-0.246
same,glycan array binding signal (z-score),[16],-0.225
same,glycan array binding signal (z-score),[17],-0.249
same,glycan array binding signal (z-score),[18],-0.239
same,glycan array binding signal (z-score),[19],-0.244
same,glycan array binding signal (z-score),[20],-0.247
same,glycan array binding signal (z-score),[21],-0.235
same,glycan array binding signal (z-score),[22],-0.19
same,glycan array binding signal (z-score),[23],2.22
same,glycan array binding signal (z-score),[24],1.16
same,glycan array binding signal (z-score),[25],-0.248
same,glycan array binding signal (z-score),[26],-0.226
same,glycan array binding signal (z-score),[27],-0.248
same,glycan array binding signal (z-score),[28],-0.144
same,glycan array binding signal (z-score),[29],-0.202
same,glycan array binding signal (z-score),[30],0.059
same,glycan array binding signal (z-score),[31],-0.008
same,glycan array binding signal (z-score),[32],0.019
same,glycan array binding signal (z-score),[33],-0.246
same,glycan array binding signal (z-score),[34],-0.242
same,glycan array binding signal (z-score),[35],-0.237
same,glycan array binding signal (z-score),Neu5Ac(a2-3)GalNAc,-0.236
same,glycan array binding signal (z-score),[36],-0.247
same,glycan array binding signal (z-score),[37],-0.247
same,glycan array binding signal (z-score),[38],-0.24
same,glycan array binding signal (z-score),[39],-0.233
same,glycan array binding signal (z-score),[40],-0.233
same,glycan array binding signal (z-score),Neu5Ac(a2-6)Gal,-0.186
